The campaign covered roughly 150,000 compounds. About 540 (0.36%) showed an effect of 50% or more. The list shows a part of the results.

The subject of the experiment is Plasmodium falciparum. As to the kind of experiment: Primary screen in NF54 nanoGlo assay, in single point, at 2uM, 72h; a lower Z score goes with more inhibition. The experiment is classed as functional, Erythrocyte. The note with it: timepoint 72 hour.

Regarding `Cc1ccc(Oc2ncnc3scc(-c4ccccc4)c23)cn1`, the “% Inhibition” value is given as -1% and the Z score is 0.11.

Turning to `CC[C@H]1C(=O)NCCN1CCC1CN(C(=O)OC(C)(C)C)C1`, the “% Inhibition” value was -8% and the Z score turned out to be 1.37.

Turning to `COc1ccc([C@H]2CC(=O)NCc3nc4ccc(C)cn4c32)cc1C`, the “% Inhibition” value is listed as -13% and the Z score is 1.38.

With `CCc1ccnc(C(=O)N[C@H]2CCn3nccc3C2)c1`, the “% Inhibition” value was found to be 7% and the Z score is recorded as -0.87.

Consider `COc1cccc(Cn2ncn(C)c2=O)c1Cl`, for which the “% Inhibition” value is recorded as -4% and the Z score was determined as 0.63.

`COCc1nc([C@@H]2CCCCCN2C(=O)c2cccnc2OC)no1`: the “% Inhibition” value is -2% and the Z score is 0.29.

With `Cc1cc(C(=O)NCCc2cccs2)no1`, the “% Inhibition” value was -3% and the Z score is given as 0.46.

Regarding `CN(C)/C=C/c1c(C#N)c(=O)ncn1Cc1ccccc1`, where the note is “2 µM”, the “% Inhibition” value is recorded as -5% and the Z score is on record as -0.35.

Consider `Cc1ccc(NC(=O)[C@@H]2COC3(CCN(C(=O)c4ccco4)CC3)N2C(=O)c2ccccc2)cc1`, for which the “% Inhibition” value was -7% and the Z score is on record as 1.18.

On to `Cc1c(Cl)c(C(=O)N2CCC3(CC2)[C@H](O)C[C@@H]3O)nn1C`, for which the “% Inhibition” value was -5% and the Z score is listed as 0.78.

For `O=c1[nH]ccc2ccc(-c3cc(OC(F)(F)F)ccc3O)cc12`, the “% Inhibition” value is -15% and the Z score is on record as 1.65.

As to `CC(=O)N1CCN(c2nc3c(c(=O)[nH]c(=O)n3C)n2Cc2c(F)cccc2Cl)CC1`, the “% Inhibition” value was 32% and the Z score is -3.5.

Turning to `COCCNc1ccccc1CNC(=O)c1cncc(C)c1O`, the “% Inhibition” value was -12% and the Z score was determined as 1.21.

Regarding `CN(C/C=C/c1ccccc1)C(=O)NC[C@H]1CCCN(Cc2ccco2)C1`, the “% Inhibition” value was -9% and the Z score was determined as 1.79.

Consider `CC[C@@H](Cc1ccccc1)N(CC)C(=O)Nc1ccc(NC(=O)c2ccco2)c(Cl)c1`, for which the “% Inhibition” value is recorded as -8% and the Z score is reported as 1.6.

As to `CC(C)[C@H](NC(=O)CCCNC(=O)c1cnccn1)c1nc2ccccc2n1C`, the “% Inhibition” value is listed as -14% and the Z score is 1.8.

Take `CN1C(=O)CC[C@]2(CNC(=O)c3ccc4ccccc4n3)CCCC=C12`: the “% Inhibition” value is -3% and the Z score amounted to 0.47.

For the compound `O=C(COC[C@H]1CCCCO1)N1CCC2(CCCC2)C1`, the “% Inhibition” value was -11% and the Z score worked out at 1.29.

For `COc1ccccc1CCCNc1cc([C@H]2C[C@@H](NC(C)=O)C2)ncn1`, the “% Inhibition” value was -13% and the Z score is recorded as 2.47.

For the compound `CN(C)c1nccnc1O[C@H]1CCCN(C(=O)Cc2cccs2)C1`, the “% Inhibition” value was -5% and the Z score stood at 0.78.

As to `CC[C@H](NC(=O)N(C)Cc1ccoc1)c1nc(C)no1`, the “% Inhibition” value is listed as 5% and the Z score is on record as -0.7.

Regarding `Cc1ccc2c(c1)NC(=O)c1cc(S(=O)(=O)N3CCCC3)c(N3CCCC3)cc1O2`, the “% Inhibition” value is given as -14% and the Z score amounted to 1.94.

Consider `COc1cccc([C@@H]2Cn3nnc(-c4nc(-c5cccc(C)c5)no4)c3CO2)c1`, for which the “% Inhibition” value is recorded as -12% and the Z score came to 2.16.

Take `CN(Cc1nnc2n1CCOCC2)C(=O)c1ccc(-c2ccncc2)o1`: the “% Inhibition” value is -2% and the Z score was 0.25.

Turning to `O=C(NCc1ccncc1)c1coc(COc2cccc3cccnc23)n1`, the “% Inhibition” value was determined as 1% and the Z score was -0.26.

With `N#Cc1ccc(-n2nnc3ccccc32)cc1`, the “% Inhibition” value is reported as -7% and the Z score is reported as 0.88.

In the case of `CC(O)CC1COCCN1Cc1sccc1Cl` (centres undefined), the “% Inhibition” value was -2% and the Z score is recorded as 0.17.

In the case of `CCCc1ccc(CN(C)Cc2cnn(C)c2)o1`, the “% Inhibition” value is reported as -2% and the Z score came out at 0.41.

For `CC1=NN(C)C(=O)[C@H]1C(=O)NCc1ccco1`, the “% Inhibition” value is on record as -5% and the Z score was 0.97.

As for `CCc1ccc(C(=O)N2CCC3(CCN(Cc4ncc[nH]4)CC3)[C@@H](CO)C2)[nH]1`, the “% Inhibition” value is -16% and the Z score worked out at 2.01.

As to `Cc1nc(-c2sc(C(C)C)nc2C)n(C2CCN(C)CC2)n1`, the “% Inhibition” value was determined as 2% and the Z score is -0.42.

`CCOC(=O)/C(N)=N/NC(=O)Cc1ccc(F)cc1`: the “% Inhibition” value was -3% and the Z score came out at 0.37.

Take `COc1ccc(Cn2c(C)c(C3=CCN(S(=O)(=O)c4c(C)noc4C)CC3)c3ccccc32)cc1`: the “% Inhibition” value was -4% and the Z score amounted to 0.58.

For `O=C(CN1CCCC1)Nc1nc(-c2ccccc2)cc(-c2ccccc2)n1`, the “% Inhibition” value is recorded as -1% and the Z score was 0.2.

On to `CCc1nsc(NC2CCCC2(C)CO)n1` (centres undefined), for which the “% Inhibition” value amounted to 0% and the Z score was 0.06.

As for `C[C@@H](c1ccc2c(c1)OCCCO2)N(C(=O)C1CCC1)C1CC1`, the “% Inhibition” value was 1% and the Z score is listed as -0.27.

Take `CC1(C)CCc2ccccc2[C@@H](Nc2nnc(C(F)F)o2)C1`: the “% Inhibition” value worked out at 0% and the Z score stood at 0.04.

For `O=C(NCc1ccccn1)[C@H]1CCCN(C2CCN(CCC3CCCCC3)CC2)C1`, the “% Inhibition” value is reported as 6% and the Z score is recorded as -1.12.

Regarding `Cc1ccc(C(C)(C)NC(=O)C2CC3C=CC2C3)cn1` (centres undefined), the “% Inhibition” value is 3% and the Z score was -0.56.

Regarding `Cn1cnnc1[C@H]1CCN(c2ccnc(Cc3ccccc3)n2)C1`, the “% Inhibition” value was found to be 0% and the Z score was 0.02.

Consider `CCOC1CC(O)(CNC(=O)Cc2ccc(Cl)cc2Cl)C1` (centres undefined), for which the “% Inhibition” value is given as -36% and the Z score is given as 4.2.

As to `COC1(c2ccccc2)CN(Cc2nnn(C(C)(C)C)n2)C1`, the “% Inhibition” value was found to be 1% and the Z score is on record as -0.15.

Source of the values: ChEMBL document CHEMBL4888484, “Replenishing the malaria drug discovery pipeline: Screening and hit evaluation of the MMV Hit Generation Library 1 (HGL1) against asexual blood stage Plasmodium falciparum ,using a nano luciferase reporter read-out” (2022).
